Results reported in PubChem BioAssay AID504333 (National Center for Advancing Translational Sciences (NCATS), 2011).
Out of some 360,000 compounds screened, about 16,000 (4.4%) were called active. The inconclusive results got no clear call from the source; some entries with a clear call stand among them for comparison. Calls come from the whole dose curve; as a rule, active = well fitted inhibition curve with a large enough effect; inconclusive = small, poorly fitted or top-dose-only effect; inactive = no such curve, though single readings can be large or run the other way. Potencies of inconclusive entries are doubtful fits and often do not repeat.
% is set by controls: 0 for no effect and ±100 for the full control effect; potency is the fitted concentration of half-maximal effect; tags give direction and shape of the fitted curve.
Note: nearly all actives have a fitted effect of over 60% in size.

The compounds below were run against Bromodomain adjacent to zinc finger domain protein 2B (Homo sapiens) (UniProt Q9UIF8) (assay: qHTS Assay for Inhibitors of BAZ2B). Settings: AlphaScreen BAZ2B-H3K14Ac peptide displacement; activity change, negative = inhibition: at 114 µM (top of the series) unless noted.
Chain of UniProt Q9UIF8 (Q9UIF8 whole entry, looked up, the tested form may be a part): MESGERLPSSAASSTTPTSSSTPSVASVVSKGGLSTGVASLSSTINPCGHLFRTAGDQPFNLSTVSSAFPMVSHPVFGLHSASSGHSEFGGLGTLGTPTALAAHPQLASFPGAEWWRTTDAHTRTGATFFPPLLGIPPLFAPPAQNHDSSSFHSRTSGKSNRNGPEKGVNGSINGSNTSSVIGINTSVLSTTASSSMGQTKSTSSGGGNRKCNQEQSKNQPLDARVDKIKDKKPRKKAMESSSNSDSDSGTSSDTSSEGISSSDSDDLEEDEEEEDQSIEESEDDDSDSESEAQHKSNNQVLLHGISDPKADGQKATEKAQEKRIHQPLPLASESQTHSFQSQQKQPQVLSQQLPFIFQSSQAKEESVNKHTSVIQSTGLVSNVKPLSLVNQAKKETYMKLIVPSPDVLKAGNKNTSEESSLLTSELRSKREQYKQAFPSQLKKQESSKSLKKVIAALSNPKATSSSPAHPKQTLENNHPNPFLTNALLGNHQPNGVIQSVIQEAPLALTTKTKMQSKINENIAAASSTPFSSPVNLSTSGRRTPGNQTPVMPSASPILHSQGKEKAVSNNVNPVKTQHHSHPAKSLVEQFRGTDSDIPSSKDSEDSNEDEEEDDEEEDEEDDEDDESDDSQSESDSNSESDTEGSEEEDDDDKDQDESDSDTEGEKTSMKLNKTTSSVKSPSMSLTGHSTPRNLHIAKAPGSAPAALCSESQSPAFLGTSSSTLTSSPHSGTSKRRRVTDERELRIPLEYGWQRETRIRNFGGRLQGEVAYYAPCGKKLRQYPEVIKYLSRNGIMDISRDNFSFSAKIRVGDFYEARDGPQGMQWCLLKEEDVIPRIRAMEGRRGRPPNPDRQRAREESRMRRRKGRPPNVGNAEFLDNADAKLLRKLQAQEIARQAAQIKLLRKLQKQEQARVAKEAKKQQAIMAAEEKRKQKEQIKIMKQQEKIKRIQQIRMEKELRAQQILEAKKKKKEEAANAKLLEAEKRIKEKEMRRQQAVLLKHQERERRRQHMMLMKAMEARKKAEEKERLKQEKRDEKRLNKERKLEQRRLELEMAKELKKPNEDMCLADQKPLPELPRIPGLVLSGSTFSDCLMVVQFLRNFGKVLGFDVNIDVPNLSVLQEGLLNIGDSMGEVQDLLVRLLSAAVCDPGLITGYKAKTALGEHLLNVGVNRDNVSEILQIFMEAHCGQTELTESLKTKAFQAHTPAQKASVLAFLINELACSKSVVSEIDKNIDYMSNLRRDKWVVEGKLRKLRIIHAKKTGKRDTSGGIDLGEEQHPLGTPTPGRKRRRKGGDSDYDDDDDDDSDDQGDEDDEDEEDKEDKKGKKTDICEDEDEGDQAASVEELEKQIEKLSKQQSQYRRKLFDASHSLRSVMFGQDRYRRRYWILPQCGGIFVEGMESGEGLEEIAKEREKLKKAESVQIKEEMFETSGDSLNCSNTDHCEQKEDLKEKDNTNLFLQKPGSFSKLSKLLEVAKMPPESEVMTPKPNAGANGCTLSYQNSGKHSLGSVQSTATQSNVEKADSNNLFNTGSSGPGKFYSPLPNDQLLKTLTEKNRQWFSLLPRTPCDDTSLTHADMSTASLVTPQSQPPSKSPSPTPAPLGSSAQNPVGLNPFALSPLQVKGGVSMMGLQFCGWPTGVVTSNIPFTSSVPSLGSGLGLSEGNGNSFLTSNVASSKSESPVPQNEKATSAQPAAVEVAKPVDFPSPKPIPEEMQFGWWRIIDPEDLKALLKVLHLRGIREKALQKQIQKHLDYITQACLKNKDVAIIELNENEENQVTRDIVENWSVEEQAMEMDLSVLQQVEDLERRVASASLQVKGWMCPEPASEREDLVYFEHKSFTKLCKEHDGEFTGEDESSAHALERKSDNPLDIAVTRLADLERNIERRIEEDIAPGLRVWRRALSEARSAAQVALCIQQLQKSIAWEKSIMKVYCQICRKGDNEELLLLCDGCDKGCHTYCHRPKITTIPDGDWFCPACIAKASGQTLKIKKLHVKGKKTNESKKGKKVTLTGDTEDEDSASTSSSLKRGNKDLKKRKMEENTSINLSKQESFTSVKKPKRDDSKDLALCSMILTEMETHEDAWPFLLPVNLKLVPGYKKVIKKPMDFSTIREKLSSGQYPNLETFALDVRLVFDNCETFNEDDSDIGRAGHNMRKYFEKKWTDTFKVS
Summary of the method: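 In this displacement format the biotinylated H3(5-23) peptide acetylated at Lys14 serves as ligand at 50 nM, with BAZ2B at 50 nM in PBS pH 7.4 containing 0.01% Tween-20. Donor and acceptor beads are 10 ug/mL final.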
For `CCCCOP(=O)(OCCCC)C(O)c1ccc(N(C)C)cc1` (stereo unspecified), the Potency was inconclusive: 70.8 µM [inhibitor, single point].
`CCOC(=O)C1CCCN(CC(=O)c2ccc(F)cc2)C1` (stereo unspecified) was tested, and the Potency was active: 20 µM.
In the case of `CCOC(=O)C1CCN(C(=O)CSc2ccccc2)CC1`, the “activity change, negative = inhibition” value is reported as inactive: 2.14%.
In the case of `COCCNC(=O)CSc1nc(-c2cc(OC)c(OC)c(OC)c2)[nH]c1-c1ccc(Cl)cc1`, the Potency is reported as inconclusive: 50.1 µM [inhibitor, partial curve].
With `Cc1c(N)cccc1N` the “activity change, negative = inhibition” value was inactive: -2.01%.
In the case of `CCOc1c(C)cc(-c2ncccc2O)cc1C`, the Potency is reported as “inactive”.
In the case of `Cc1ccc(Nc2nnc(-c3ccc(C)c(S(=O)(=O)N4CCN(C)CC4)c3)c3ccccc23)cc1`, the Potency is reported as inconclusive: 25.1 µM [inhibitor, single point].
`O=C1CC(NNc2ccccc2)C(=O)N1c1ccc(N2CCCCC2)cc1` (stereo unspecified) was tested, and the Potency was inconclusive: 44.7 µM [inhibitor, partial curve].
`COc1ccc(-c2nn(C)c(=O)c3ccccc23)cc1CNC(=O)NC1CCCCC1` was tested, and the Potency was inconclusive: 79.4 µM [inhibitor, single point].
With `CCCC(O)c1nc2ccccc2n1Cc1ccccc1OC` (stereo unspecified) the Potency was inconclusive: 89.1 µM [inhibitor, single point].
`CCCCOC(=O)CCCN1C(=O)/C(=C2\SC(=S)N(CCCC(=O)OCCCC)C2=O)SC1=S` was tested, and the Potency was inconclusive: 1.41 µM [inhibitor, full curve, poor fit].
`COc1ccc(C(=O)CCN2CCN(c3ccccc3OC)CC2)cc1` was tested, and the Potency was inconclusive: 79.4 µM [inhibitor, single point].
For `CC(C)(C)c1ccc(C(=O)Nc2ccc3c(c2)CCCN3C(=O)c2cccs2)cc1`, the Potency was inconclusive: 79.4 µM [inhibitor, single point].
With `COc1cccc(C2=CC(=O)C[C@H](c3ccc(OC)c(OC)c3)C2)c1` the Potency was inconclusive: 89.1 µM [inhibitor, single point].
`O=C1/C(=C\c2ccc(O)c(O)c2)C(c2ccccc2)=NN1c1ccccc1` was tested, and the Potency was active: 8.91 µM.
With `CC(C)(C)C(=O)Cn1c(=O)n(-c2ccc(F)cc2F)c(=O)c2sccc21` the “activity change, negative = inhibition” value was inactive: -3.5%.
`Cc1occc1-c1nnc(SCCCC(=O)c2ccc(F)cc2)n1C` was tested, and the Potency was inconclusive: 89.1 µM [inhibitor, single point].
In the case of `CCOc1ccccc1Nc1sc(C(=O)c2ccccc2)c(N)c1C(=O)Nc1ccccc1`, the Potency is reported as inconclusive: 28.2 µM [inhibitor, partial curve].
`COc1ccc(Nc2cccc3ccccc23)cc1` was tested, and the Potency was inconclusive: 89.1 µM [inhibitor, single point].
In the case of `Cc1cccc(NCC(=O)N/N=C\c2cccn2C)c1`, the Potency is reported as inconclusive: 44.7 µM [inhibitor, partial curve].
In the case of `CCN(CC)c1ccc(N=CN2CCOCC2)cc1`, the Potency is reported as inconclusive: 50.1 µM [inhibitor, partial curve].
In the case of `COc1cc(/C=C2\CC/C(=C\c3cc(OC)c(O)c(OC)c3)C2=O)cc(OC)c1O`, the Potency is reported as active: 50.1 µM.
With `CCOc1ccc(CN2CCN(C(=O)c3cccc4ccccc34)CC2)cc1` the Potency was active: 44.7 µM.
With `COc1cc(OC)cc(-c2c(C#Cc3ccsc3)c3cc(-c4ccc5cc[nH]c5c4)ccc3n2C)c1` the Potency was inconclusive: 89.1 µM [inhibitor, single point].
With `COc1ccc(S(=O)(=O)Nc2ccncc2)c(C)c1C` the “activity change, negative = inhibition” value was inactive: -6.47%.
`CCCCNc1c(-c2ccc(OC)c(SC3CCCCC3)c2)nc2cc(C)ccn12` was tested, and the Potency was inconclusive: 50.1 µM [inhibitor, partial curve].
With `CC(=O)Nc1cc(-c2ccccc2)ccc1O` the “activity change, negative = inhibition” value was inactive: 22.7%.
In the case of `COc1ccc2nc(NC(=O)CSCC(=O)Nc3cc(C)on3)sc2c1`, the “activity change, negative = inhibition” value is reported as inactive: -2.66%.
With `COC(=O)CCC(=O)OC1(C)C(=O)C2=CN(CCCCO)C(c3ccc(OC)cc3)=CC2=C(Br)C1=O` (stereo unspecified) the Potency was inconclusive: 79.4 µM [inhibitor, single point].
In the case of `O=C1CN(C(=O)c2cccc(Br)c2)c2ccccc2N1`, the “activity change, negative = inhibition” value is reported as inactive: -1.98%.
`CCN(CC)C(=O)CSC1=C(C#N)C(c2ccco2)C(C(=O)OCCOC)=C(C)N1` (stereo unspecified) was tested, and the Potency was inconclusive: 70.8 µM [inhibitor, partial curve, poor fit].
For `CCOc1ccc(NS(=O)(=O)c2ccc3c(c2)n(C)c(=O)n3C)cc1`, the Potency was inconclusive: 89.1 µM [inhibitor, single point].
In the case of `COC(=O)c1ccccc1NC(=O)N1CCN(Cc2ccco2)CC1`, the Potency is reported as inconclusive: 89.1 µM [inhibitor, single point].
With `Cc1cc2cc(CN(Cc3ccco3)C(=O)NCc3ccccc3)c(=O)[nH]c2cc1C` the Potency was inconclusive: 70.8 µM [inhibitor, single point].
For `Cc1ccc(NC(=O)c2nc(S(C)(=O)=O)ncc2N(Cc2ccco2)Cc2cccs2)c(C)c1`, the Potency was inconclusive: 89.1 µM [inhibitor, single point].
With `CC(=O)N1CCc2nc3sc(C(=O)c4ccc(F)cc4)c(N)c3c(C(F)(F)F)c2C1` the Potency was active: 50.1 µM.
For `CCN1CCCc2cc(CN(CCN3CCOCC3)C(=S)Nc3cccc(C)c3)ccc21`, the Potency was active: 8.91 µM.
For `COc1ccc(-n2c(O)c(/C=N/n3cnnc3)c3ccccc3c2=O)cc1`, the Potency was active: 56.2 µM.
With `CC(C)(C)C(=O)N1CCn2c1nc1ccccc12` the Potency was active: 56.2 µM.
With `Cc1ccsc1/C=C/C1=Cc2c(sc(NC(=O)CSc3n[nH]c(N)n3)c2C#N)C(C)(C)C1` the Potency was inconclusive: 35.5 µM [inhibitor, full curve].
For `Cc1cccc(/C=N/n2c(C3CCCCC3)n[nH]c2=S)c1`, the Potency was inconclusive: 39.8 µM [inhibitor, full curve, poor fit].
In the case of `CC1=NN(C(=O)CSCc2ccccc2)C(O)(c2ccccc2)C1` (stereo unspecified), the Potency is reported as inconclusive: 89.1 µM [inhibitor, single point].
With `O=C(Nc1ccccc1)c1ccc(N2CCN(c3ccccc3)CC2)c(S(=O)(=O)N2CCOCC2)c1` the Potency was active: 79.4 µM.
For `O=C(/C=C/c1ccc(F)cc1)NC(=S)N1CCN(Cc2ccccc2)CC1`, the Potency was inconclusive: 50.1 µM [inhibitor, partial curve].
In the case of `CC(NCC1COc2ccccc2O1)C(=O)NCc1ccccc1` (stereo unspecified), the Potency is reported as active: 35.5 µM.
For `COc1ccc(CNC(=O)c2ccc(NC(=O)N3CC4CCCN4c4ccccc43)cc2)cc1` (stereo unspecified), the Potency was inconclusive: 11.2 µM [inhibitor, full curve].
In the case of `CC(C)n1cnc2c(N(C)c3ccccc3)nc(N(CCN(C)C)Cc3ccccc3)nc21`, the Potency is reported as active: 31.6 µM.
With `CSc1sc(-c2n[nH]c(=S)n2C)c2c1C=CCC2` the Potency was inconclusive: 79.4 µM [inhibitor, partial curve].
For `COc1ccc(OCCCC(=O)OC(C)C(=O)Nc2ccccc2[N+](=O)[O-])cc1` (stereo unspecified), the Potency was inconclusive: 22.4 µM [inhibitor, partial curve].
For `Cc1ccc(NS(=O)(=O)c2cccc(C(=O)NCCCN3CCOCC3)c2)cc1`, the “activity change, negative = inhibition” value was inactive: 9.96%.
In the case of `OCCNCC(O)CN1c2ccccc2Sc2ccccc21` (stereo unspecified), the Potency is reported as inconclusive: 50.1 µM [inhibitor, partial curve].
In the case of `CC(=O)N1CCN(Cc2nc3cc(NC(=O)COc4ccccc4)ccc3n2C)CC1`, the Potency is reported as inconclusive: 56.2 µM [inhibitor, partial curve].
In the case of `N#Cc1c(N2CCCC(O)C2)nc(N)c2c(N)nc3c(c12)CC(=O)N3C12CC3CC(CC(C3)C1)C2` (stereo unspecified), the Potency is reported as inconclusive: 14.1 µM [inhibitor, partial curve].
With `Cn1c(CNC(=O)CNC(=O)Cc2ccc(F)cc2)cc(=O)n(C)c1=O` the “activity change, negative = inhibition” value was inactive: -19.8%.
In the case of `O=C(Cc1cc(=O)[nH]c(=O)[nH]1)NCc1ccc(Cl)cc1`, the “activity change, negative = inhibition” value is reported as inactive: -0.403%.
`Cc1nc2ccc(NC(=O)NCCO)cc2s1` was tested, and the “activity change, negative = inhibition” value was inactive: -1.79%.
In the case of `O=C(Cn1cncc1-c1ccc([N+](=O)[O-])cc1)Nc1ccccc1F`, the Potency is reported as inconclusive: 100 µM [inhibitor, single point].
For `O=C1CC(c2cccs2)Cc2nc(NCC3CCCO3)ncc21` (stereo unspecified), the Potency was inconclusive: 89.1 µM [inhibitor, single point].
`CCOc1ccc(/C=C/C(=O)Nc2sc3c(c2C(=O)OC)C(C(=O)OC)CC3)cc1` (stereo unspecified) was tested, and the Potency was inconclusive: 50.1 µM [inhibitor, partial curve].
For `CCOC(=O)c1ccc2[nH]c3c(c2c1)CCCC3C(=O)OCC` (stereo unspecified), the Potency was inconclusive: 44.7 µM [inhibitor, partial curve].
`Nc1cc(C(=O)OCC(=O)N2CCCC2)ccc1Cl` was tested, and the “activity change, negative = inhibition” value was inactive: 0.27%.
With `O=C(N/N=C/c1ccc[nH]1)c1cccc(Br)c1` the Potency was inconclusive: 70.8 µM [inhibitor, single point].
`Cn1c(NCCCN2CCOCC2)nc2c1c(=O)n(Cc1ccc(Cl)c(Cl)c1)c(=O)n2C` was tested, and the Potency was inconclusive: 89.1 µM [inhibitor, single point].
In the case of `COc1ccc(Nc2ccccc2)c(C)c1`, the Potency is reported as inconclusive: 50.1 µM [inhibitor, partial curve].
In the case of `CCCn1ccc2c(OCC(=O)Nc3cc(C)ccc3C)cccc2c1=O`, the “activity change, negative = inhibition” value is reported as inactive: 7.42%.
`CN1CC(c2ccccc2)C(c2ccc(Cl)cc2)=N1` (stereo unspecified) was tested, and the Potency was inconclusive: 79.4 µM [inhibitor, single point].
With `CCc1ccc(C(=O)COC(=O)C(Cc2ccccc2)NC(=O)C2CCC(C)CC2)cc1` (stereo unspecified) the “activity change, negative = inhibition” value was inactive: -30.7%.
In the case of `Cc1cccc(N=Nc2c(C)nn(-c3ccccc3)c2N)c1C`, the Potency is reported as active: 17.8 µM.
With `C/C(Cl)=C\Cn1c(O)c(N=NC(N)=S)c2cc(Br)ccc21` the Potency was active: 10 µM.
With `CSc1cccc(NC(=S)N(Cc2ccccc2)Cc2cccnc2)c1` the Potency was inconclusive: 28.2 µM [inhibitor, partial curve].
With `COC(=O)CC1Oc2ccccc2-n2cc(-c3ccc(C)cc3)nc21` (stereo unspecified) the Potency was inconclusive: 10 µM [inhibitor, full curve, poor fit].
